#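 Values below derive from 48-hour exposures of cells grown in 96-well plates, with endpoints linearly interpolated between the two concentrations bracketing the appropriate inhibition level. GI50 marks 50% less growth. TGI denotes the concentration required for complete inhibition of growth.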
# System: NCI-H322M lung
# Assay: inhibition of tumour cell growth, NCI panel, 48 h
SMILES,GI50 [µM],TGI [µM]
C#CCN(C)CCCOc1ccc(N(CC)C(=O)c2cc(C(C)C)c(O)cc2O)cc1Cl,0.737,17.3
CC/C(=C(/c1ccc(O)cc1)c1ccc(OCCN(C)C(=O)COCCOCCNC(=O)Cc2ccc3c(c2)CN([C@@H]2CCC(=O)NC2=O)C3=O)cc1)c1ccccc1,1.16,> 29.4
CCOc1ccc(/C=N/NC(=O)Cn2nc(Cc3ccc(OC)cc3)c3onc(C)c3c2=O)cc1,16.4,77.3

# Reference: PubChem BioAssay (NCI)
